About 15 (0.02%) of roughly 75,000 compounds were called active. Inconclusive means that the source gave no clear call. Such entries were picked first, then a sample of the others. Calls follow the shape of the dose curve; as a rule, active = well fitted inhibition curve with a large enough effect in the main read-out, with a control signal flat (not every such curve was filed as active); inconclusive = small, poorly fitted or top-dose-only effect, or a change in a side signal; inactive = flat fitted curve, though single readings scatter. Potencies beside an inconclusive call are fits to weak or partial responses and may not hold up. A note “side channel” means that the fit belongs to a control or component signal, not to the main read-out.
Biological target: Caspase-7 (Homo sapiens) (UniProt P55210)
Test: qHTS Assay for Allosteric/Competitive Inhibitors of Caspase-7; as to activity change, negative = inhibition: % of control where 0% means no effect
Conditions: recombinant caspase-7, Ac-DEVD-AFC fluorescence rate; activity change, negative = inhibition: at 57.5 µM (top of the series) unless noted
Potency is read from the fitted curve at half-maximal effect; tags tell the direction and shape of the fitted curve or compound fluorescence and quenching.

UniProt P55210, sequence (P55210 whole entry, looked up): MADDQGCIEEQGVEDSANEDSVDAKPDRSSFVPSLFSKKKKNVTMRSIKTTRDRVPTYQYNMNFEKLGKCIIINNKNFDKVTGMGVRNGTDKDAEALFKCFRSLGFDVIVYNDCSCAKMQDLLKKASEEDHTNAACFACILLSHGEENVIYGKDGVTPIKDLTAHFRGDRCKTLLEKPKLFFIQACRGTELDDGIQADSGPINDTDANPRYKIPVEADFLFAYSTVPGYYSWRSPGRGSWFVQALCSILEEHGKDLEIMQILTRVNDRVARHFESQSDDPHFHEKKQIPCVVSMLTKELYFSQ

Question: Which Potency does the source give for COc1cccc(Nc2ncc3nc(CCc4ccccc4)c(=O)n(CCC#N)c3n2)c1 here?
Answer: The Potency was inconclusive: 3.16 µM [fluorescent, full curve].

Question: For CCOC(=O)COc1cc2c(C(=O)OCC)c(C)oc2cc1Br, which Potency is on record?
Answer: Its Potency is “inactive”.

Question: For CC1=CC2C(CC1=O)C(C)=CCC2C(C)C (configuration not stated), which Potency is on record?
Answer: The Potency was “inactive”.

Question: For c1ccc(Cn2c(-c3ccco3)nc3nc4ccccc4nc32)cc1, which Potency is on record?
Answer: The Potency was inconclusive: 25.1 µM [fluorescent, partial curve].

Question: For COc1ccc(O)c(-c2c(-c3ccc(Cl)cc3)n[nH]c2C)c1, which Potency is on record?
Answer: The Potency was “inactive”.

Question: Which Potency does the source give for COc1ccc(CNc2ncnc3ccc(-c4ccc5c(c4)OCO5)cc23)c(OC)c1 here?
Answer: The Potency was “inactive”.

Question: CN(C)c1ncc2nc(CCc3ccccc3)c(=O)n(Cc3ccc(F)cc3)c2n1 was tested. Which Potency did it give?
Answer: Its Potency is inconclusive: 3.16 µM [inhibitor, single point].

Question: How did the Potency turn out when CN(C)c1ncc2nc(-c3cccs3)c(=O)n(Cc3cccs3)c2n1 was run?
Answer: The Potency was inconclusive: 0.794 µM [fluorescent, side channel, full curve].

Question: O=c1c(C(c2nnnn2C2CCCCC2)N2CCCCC2)coc2ccc(Cl)cc12 (configuration not stated) was tested. Which Potency did it give?
Answer: The Potency was “inactive”.

Question: Which Potency does the source give for CCOC(=O)C1=C(C)NC2=C(C(=O)CC(C)(C)C2)C1c1cccc(C)n1 (configuration not stated) here?
Answer: The Potency was inconclusive: 12.6 µM [fluorescent, partial curve].

Question: How did the Potency turn out when COc1ccc(C2C(C#N)=C(N)Oc3cc(O)ccc32)cc1OC (configuration not stated) was run?
Answer: The Potency was inconclusive: 25.1 µM [fluorescent, single point].

Question: For Cc1ccc(C(=O)c2cc3c(cc2N)OCCO3)cc1, which Potency is on record?
Answer: Its Potency is “inactive”.

Question: For Cn1cc(-c2nc3cnc(N4CCNCC4)nc3n(Cc3ccc(F)cc3)c2=O)c2ccccc21, which Potency is on record?
Answer: The Potency was inconclusive: 10 µM [fluorescent, side channel, partial curve].

Question: Which Potency does the source give for CC(=O)NCCSC(=O)c1ccc(F)cc1 here?
Answer: The Potency was “inactive”.

Question: How did the Potency turn out when N=c1c(C(=O)NCc2ccc(F)cc2)cc2c(=O)n3ccccc3nc2n1CCCN1CCOCC1 was run?
Answer: Its Potency is inconclusive: 3.98 µM [fluorescent, side channel, partial curve].

Question: With Cn1c(N)c(C(=O)COC(=O)c2cc(-c3ccco3)nc3ccccc23)c(=O)n(C)c1=O as the compound, how does the Potency read?
Answer: Its Potency is inconclusive: 15.8 µM [inhibitor, partial curve].

Question: With COc1ccc(CNc2ccnc(-c3cccc(C#N)c3)n2)c(OC)c1 as the compound, how does the Potency read?
Answer: The Potency was “inactive”.

Question: O=c1c2cc(N3CCOCC3)ccc2[nH]c(=S)n1Cc1ccco1 was tested. Which Potency did it give?
Answer: Its Potency is inconclusive: 31.6 µM [fluorescent, single point].

Question: How did the Potency turn out when CCN(CC)c1ccc(C2C(C(=O)OCCOC)=C(C)NC3=C2C(=O)CCC3)cc1 (configuration not stated) was run?
Answer: Its Potency is inconclusive: 31.6 µM [inhibitor, single point].

Question: With N#CCCn1c(=O)cnc2cnc(N3CCOCC3)nc21 as the compound, how does the Potency read?
Answer: Its Potency is inconclusive: 20 µM [inhibitor, partial curve].

Question: For CCC(=O)Nc1ccc(N2CCN(C(=O)c3ccccc3C)CC2)cc1, which Potency is on record?
Answer: Its Potency is inconclusive: 25.1 µM [inhibitor, single point].

Question: With O=C(NCc1ccccc1)NC1(C(=O)N2CCOCC2)CCCCC1 as the compound, how does the activity change, negative = inhibition read?
Answer: The activity change, negative = inhibition was inconclusive: -92.4% [inhibitor] [at 0.00368 µM].

Question: With CC(=O)Nc1cc(CN2CCCCC2)c(O)c2ncccc12 as the compound, how does the activity change, negative = inhibition read?
Answer: The activity change, negative = inhibition was inactive: 1.9% [at 11.5 µM].

Question: O=c1oc2c3c4c(cc2cc1-c1nc2ccccc2[nH]1)CCCN4CCC3 was tested. Which Potency did it give?
Answer: Its Potency is inconclusive: 5.01 µM [fluorescent, side channel, partial curve].

Question: How did the Potency turn out when CCNc1ncc2nc(-c3ccc(F)cc3)c(=O)n(CCc3ccccc3)c2n1 was run?
Answer: Its Potency is inconclusive: 2.51 µM [fluorescent, full curve].

Question: For O=C(c1ccc(CNS(=O)(=O)c2cccc(C(F)(F)F)c2)cc1)N1CCOCC1, which Potency is on record?
Answer: The Potency was inconclusive: 15.8 µM [fluorescent, side channel, partial curve].

Question: Nc1c(S(=O)(=O)c2cccs2)c2nc3ccccc3nc2n1CC1CCCO1 (configuration not stated) was tested. Which Potency did it give?
Answer: Its Potency is inconclusive: 25.1 µM [fluorescent, partial curve].

Question: How did the Potency turn out when O=C(c1ccco1)N1CCN(c2c(-c3ccccc3)c3cc(Cl)ccc3[nH]c2=O)CC1 was run?
Answer: Its Potency is inconclusive: 31.6 µM [inhibitor, single point].

Question: For Cc1cccc(C(=O)O)c1C[C@H]1NCC[C@H]2c3ccccc3N[C@@H]12, which activity change, negative = inhibition is on record?
Answer: The activity change, negative = inhibition was inactive: -10.1% [at 11.5 µM].

Question: Which Potency does the source give for CCCn1c(=NC(=O)c2ccco2)c(C(=O)OCC)cc2c(=O)n3ccccc3nc21 here?
Answer: The Potency was inconclusive: 12.6 µM [fluorescent, side channel, partial curve].

Question: For O=C(C1CCCN1S(=O)(=O)c1cccc2cccnc12)N1CCc2ccccc21 (configuration not stated), which Potency is on record?
Answer: Its Potency is “inactive”.

Question: How did the Potency turn out when CCCCC(=O)Nc1nn(C)c2nc3c(C)cccc3cc12 was run?
Answer: Its Potency is inconclusive: 3.98 µM [inhibitor, single point].

Question: CCCCn1c(CN2CCN(c3cccc(Cl)c3)CC2)nc2c1c(=O)[nH]c(=O)n2C was tested. Which Potency did it give?
Answer: Its Potency is “inactive”.

Question: C=CCNc1sc(C(=O)c2cccs2)c(N)c1C#N was tested. Which Potency did it give?
Answer: The Potency was inconclusive: 31.6 µM [fluorescent, single point].

Question: For CC(=O)c1cc2cc(O)ccc2o1, which Potency is on record?
Answer: Its Potency is inconclusive: 15.8 µM [fluorescent, partial curve].

Question: COCCCNC(=O)c1cc2c(=O)n3cccc(C)c3nc2n(C(C)C)c1=N was tested. Which Potency did it give?
Answer: The Potency was inconclusive: 1.58 µM [fluorescent, side channel, full curve].

Question: For Cn1c(=O)c(-c2cccs2)nc2cncnc21, which Potency is on record?
Answer: Its Potency is inconclusive: 12.6 µM [fluorescent, side channel, partial curve].

Question: For COCCn1c(N)c(C(=O)Nc2sc3c(c2C(=O)OC)CCCC3)c2nc3ccccc3nc21, which Potency is on record?
Answer: The Potency was inconclusive: 1.58 µM [inhibitor, partial curve].

Question: CN1CCc2nc(NC(=O)c3cccc(S(=O)(=O)N4CCc5ccccc54)c3)sc2C1 was tested. Which Potency did it give?
Answer: Its Potency is inconclusive: 31.6 µM [inhibitor, single point].

Question: For CCO/C=N/c1c(C#N)c2c(c(=S)n1C)COC(C)(C)C2, which Potency is on record?
Answer: The Potency was inconclusive: 39.8 µM [inhibitor, single point].

Question: Which Potency does the source give for CCNc1ncc2nc(-c3cc(F)cc(F)c3)c(=O)n(CCC#N)c2n1 here?
Answer: Its Potency is inconclusive: 0.794 µM [fluorescent, side channel, full curve].

Question: With CN1CCN(c2ncc3nc(-c4cccc(C#N)c4)c(=O)n(C)c3n2)CC1 as the compound, how does the Potency read?
Answer: Its Potency is inconclusive: 7.94 µM [fluorescent, side channel, partial curve].

Question: For COc1ccc2nc(NCCCNC(=O)c3cc(OC)c(OC)c(OC)c3)c(C#N)cc2c1, which Potency is on record?
Answer: Its Potency is inconclusive: 12.6 µM [fluorescent, side channel, partial curve].

Question: For Cc1cc(-n2c(C)cc(C(=O)CSc3nnnn3-c3ccc(Cl)cc3)c2C)no1, which Potency is on record?
Answer: The Potency was “inactive”.

Question: With COCCn1c(=O)c(-c2ccc(OC)cc2)nc2cnc(N3CCOCC3)nc21 as the compound, how does the Potency read?
Answer: Its Potency is inconclusive: 2 µM [fluorescent, side channel, full curve].

Question: For COC(=O)[C@@]1(Cc2ccc(F)cc2)[C@H]2c3cc(C(=O)N4CCCC4)n(Cc4ccc(C)o4)c3C[C@H]2CN1C(=O)c1ccccc1, which Potency is on record?
Answer: The Potency was “inactive”.

Question: How did the Potency turn out when CCNc1ncc2nc(C)c(=O)n(C3CC3)c2n1 was run?
Answer: The Potency was inconclusive: 15.8 µM [inhibitor, partial curve].

Question: O=c1c(-c2ccc(F)cc2)nc2cnc(N3CCOCC3)nc2n1-c1ccccc1 was tested. Which Potency did it give?
Answer: The Potency was inconclusive: 3.16 µM [fluorescent, full curve].

Question: Which Potency does the source give for CN1CCN(C(=O)c2cc3c(ccc4ccccc43)oc2=O)CC1 here?
Answer: The Potency was inconclusive: 25.1 µM [fluorescent, side channel, partial curve].

Question: With CC1(C)OC2CC(=O)OC[C@@]23C1CC(=O)[C@]1(C)C3CC[C@@]2(C)C(c3ccoc3)OC(=O)C3O[C@@]321 (some centres not stated) as the compound, how does the Potency read?
Answer: The Potency was “inactive”.

Question: With Cc1nc2c(C(=O)NCc3ccc4c(c3)OCO4)c[nH]n2c(=O)c1Cc1ccccc1F as the compound, how does the Potency read?
Answer: The Potency was inconclusive: 31.6 µM [inhibitor, single point].

Question: For CC(=O)[C@@H]1[C@@H]2C(=O)N(Cc3ccccc3)C(=O)[C@@H]2C2c3ccccc3C=CN21 (some centres not stated), which Potency is on record?
Answer: Its Potency is inconclusive: 31.6 µM [fluorescent, single point].

Question: With CC(=O)OC[C@@H]1O[C@H](C/C=N\OC[C@@H](O)[C@H]2O[C@H]3OC(C)(C)O[C@H]3[C@@H]2O)C=C[C@@H]1OC(C)=O as the compound, how does the activity change, negative = inhibition read?
Answer: Its activity change, negative = inhibition is inactive: 2.12% [at 11.5 µM].

Question: For COC(=O)CCc1c(C)c(C#N)c2nc3ccccc3n2c1N1CCCC1, which Potency is on record?
Answer: Its Potency is inconclusive: 6.31 µM [inhibitor, single point].

Question: N#CC1=C2C=CC=CN2CC1=O was tested. Which Potency did it give?
Answer: Its Potency is inconclusive: 20 µM [fluorescent, partial curve].

Question: CC1(C)Oc2ccc(NC(=O)C3COc4ccccc4O3)cc2O1 (configuration not stated) was tested. Which Potency did it give?
Answer: The Potency was “inactive”.

Question: How did the Potency turn out when COc1ccc2[nH]c(=O)c(CN(Cc3ccccc3OC)Cc3nnnn3CC3CCCO3)cc2c1 (configuration not stated) was run?
Answer: The Potency was inconclusive: 25.1 µM [fluorescent, side channel, partial curve].

Question: Which Potency does the source give for CN1CCN(c2ncc3nc(-c4ccc(Cl)cc4)c(=O)n(CCC#N)c3n2)CC1 here?
Answer: The Potency was inconclusive: 2 µM [fluorescent, side channel, full curve].

Question: How did the Potency turn out when O=C(c1ccco1)[C@@H]1[C@@H]2C(=O)N(c3ccccc3)C(=O)[C@@H]2C2c3ccccc3C=CN21 (some centres not stated) was run?
Answer: Its Potency is inconclusive: 15.8 µM [fluorescent, partial curve].

Question: For Cc1[nH]c2ccccc2c1CC(=O)O, which Potency is on record?
Answer: The Potency was inconclusive: 39.8 µM [fluorescent, side channel, single point].

Question: How did the Potency turn out when COc1ccc(Oc2ncc3nc(C)c(=O)n(-c4ccc(OC)cc4)c3n2)cc1 was run?
Answer: Its Potency is inconclusive: 25.1 µM [inhibitor, partial curve].

Question: With CC(=O)Oc1cc(OC(C)=O)c2c(=O)cc(-c3ccc(OC(C)=O)c(OC(C)=O)c3)oc2c1 as the compound, how does the Potency read?
Answer: Its Potency is inconclusive: 12.6 µM [fluorescent, side channel, partial curve].
